Measurements: PubChem BioAssay AID485344 (National Center for Advancing Translational Sciences (NCATS), 2010)
Among all 340,000 compounds or so, about 6,900 (2%) were called active. Cut-off read from the data, not from the text of the source: active = inhibition above about 30%; inactive = below that, where a call was filed. The list shows a part of the results, in another mix than the full data. The source gives no active or inactive call for entries shown without one. More than one record can exist for a structure, and the calls need not agree.

target: D(2) dopamine receptor (Homo sapiens) (UniProt P14416); experiment: HTS Assay for Allosteric Antagonists of the Human D2 Dopamine Receptor: Primary Screen for Antagonists; conditions: HEK293 TREx D2 cells, calcium flux, dopamine EC80; at 10 µM; stronger effect = higher value; note: 0% is about no effect
UniProt P14416, sequence (P14416 whole entry, looked up): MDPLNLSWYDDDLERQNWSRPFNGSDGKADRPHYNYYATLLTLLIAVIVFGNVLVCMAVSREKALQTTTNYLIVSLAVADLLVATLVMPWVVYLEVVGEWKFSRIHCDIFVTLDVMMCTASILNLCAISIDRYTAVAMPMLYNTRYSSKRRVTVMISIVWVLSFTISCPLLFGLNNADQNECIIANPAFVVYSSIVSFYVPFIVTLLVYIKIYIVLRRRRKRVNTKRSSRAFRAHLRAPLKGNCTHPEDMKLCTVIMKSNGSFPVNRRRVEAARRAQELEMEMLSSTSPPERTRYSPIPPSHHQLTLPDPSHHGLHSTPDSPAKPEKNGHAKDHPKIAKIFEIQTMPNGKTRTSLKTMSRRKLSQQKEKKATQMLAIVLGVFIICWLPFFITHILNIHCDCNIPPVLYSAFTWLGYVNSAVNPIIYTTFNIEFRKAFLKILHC
Summary of the method: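 Antagonism is scored as inhibition of an EC80 dopamine-evoked calcium signal in a force-coupled, tetracycline-inducible HEK293 T-REx D2 line, with compound present 180 s before agonist.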

SMILES	inhibition
COc1ccc(CN2C(=O)C(NC(=O)c3ccccc3OC)(C(F)(F)F)N=C2c2ccccc2)cc1 (configuration not stated)	-10.2%
COc1ccc(CCNC(=O)CCC(=O)c2cccs2)cc1OC	active: 43.9%
CCc1ccc(S(=O)(=O)c2nnn(-c3cccc(C)c3)c2N)cc1	12.3%
Cc1cc(C)n(CCOc2nonc2N)n1	active: 34.1%
CCc1ccc(NC(=O)CCn2cnc3ccccc3c2=O)cc1	22%
CCOC(=O)c1c(-c2ccccc2)oc2ccc(NS(=O)(=O)c3ccc(C(C)C)cc3)cc12	-5.87%
Cc1cccc(OCC(=O)Nc2ccc3nc(Nc4cccc(Cl)c4)cc(C)c3c2)c1	-20.6%
CCCCCn1c(=N)n(CC(O)COc2ccccc2OC)c2ccccc21 (configuration not stated)	active: 32.4%
CCOc1ccccc1CNC(=O)CN1C(=O)CCc2cc(S(=O)(=O)N3CCCCC3)ccc21	-1.34%
COc1ccccc1NC(=O)c1c(NC(=O)c2ccccc2Cl)sc2c1CCC2	-15.8%
COCCNC(=O)CSc1nc(-c2ccc(C)cc2)nc2c1c(=O)n(C)c(=O)n2C	7.61%
COC(=O)C1=C(C)NC(=O)C1(NC(=O)c1ccccc1C)C(F)(F)F (configuration not stated)	15.2%
COc1ccc(CCC(=O)NCc2ccc3c(c2)CCN3C(=O)c2ccc(C)cc2)cc1	15.5%
COc1cccc(-c2nc(SCC(=O)N3CCc4ccccc43)c3c(=O)n(C)c(=O)n(C)c3n2)c1	8.53%
COc1ccc(NC(=O)Cn2ccn(-c3ccccc3)c(=O)c2=O)cc1	15.8%
Cc1ccc(-c2nc3cccnc3s2)cc1NC(=O)Cc1ccccc1	12%
Cc1ccc(-n2nc(C)c3c(C(=O)Nc4ccc(Br)c(C)c4)cc(C)nc32)cc1	6.5%
COc1ccccc1Nc1ncnc2c1nc1n2CCCC1	11.2%
COc1ccccc1NC(=O)CSc1nnc2c3ccccc3n(C)c2n1	-3.73%
CC(C)COc1ccccc1C1CC(=O)Nc2cc3c(cc21)OCO3 (configuration not stated)	13.5%
COc1cccc(CNC(=O)Cn2ccc3cc(S(=O)(=O)N4CCC(C)CC4)ccc32)c1	-11.7%

SMILES	inhibition
CCCCOc1ccc(C2=NC(c3ccccc3)=Nc3ccc(OC)cc3N2)cc1	-7.07%
Cn1c(=O)c2c(-c3ccccc3Br)n(CCc3ccccc3)cc2n(C)c1=O	4.81%
CCc1ccc(NC(=O)CSc2nnc(-c3cc4occc4n3C)n2-c2ccccc2C)cc1	12.2%
Clc1ccccc1Cc1cn2cc(-c3ccccc3)nc2s1	2.62%
C=CCc1c(C)nc2nc(SCC(=O)Nc3ccc(OCC)cc3)nn2c1C	5.92%
Cc1cc(C)cc(NC(=O)C2(c3cccs3)CCOCC2)c1	7.51%
CC(C)c1ccc(Nc2ncnc3c2c(-c2ccccc2)cn3-c2ccccc2)cc1	-11.2%
COc1ccccc1CNC(=O)Cn1nc(C)c2nn(-c3ccc(Cl)cc3)c(C)c2c1=O	5.53%
COc1ccc(Cl)cc1NC(=O)c1c(NCc2ccc(C)o2)sc2c1CCCC2	-4.37%
COc1cccc(N(CC(=O)N2CCC(C)CC2)S(=O)(=O)c2ccc(C)cc2)c1	2.65%
COCCNC(=O)c1cc2c(Cl)nc3ccc(C)cc3c2s1	17.6%
Cc1ccc(CN(Cc2ccco2)C(=O)c2oc3c(C)c(C)ccc3c2C)cc1	7.01%
CCC(C)NC(=O)CSc1nc2cc3c(cc2c(=O)n1CCCC(=O)NCc1ccc2c(c1)OCO2)OCO3 (configuration not stated)	4.65%
CCc1ccc(NC(=O)C/C(C)=N/NC(=O)COc2ccccc2C)cc1	active: 39.6%
COc1cc(OC)c(Nc2ncnc3onc(-c4cccc(Cl)c4)c23)cc1Cl	-17.4%
CCN(c1ccccc1)S(=O)(=O)c1ccc2[nH]c(=O)c(=O)[nH]c2c1	active: 32.9%
COc1ccc(C(CCN2CCN(c3ccccc3)CC2)c2c(OC)cc(OC)c3c(-c4ccccc4)cc(=O)oc23)cc1 (configuration not stated)	active: 79.4%
Cc1cc(C)cc(OCC(=O)N(Cc2ccc(C)o2)C2CCS(=O)(=O)C2)c1 (configuration not stated)	-6.34%
Cc1ccc(-c2nn3c(=O)cc(CN4CCN(C(=O)Nc5cc(Cl)ccc5C)CC4)nc3s2)cc1	11.7%
CCC(CC)C(=O)Nc1ccc2nc(SCC(=O)N3c4ccccc4CC3C)sc2c1 (configuration not stated)	4.83%
CCOC(=O)c1c(C)sc(-c2c(-c3ccc(OC)c(F)c3)[nH]c3c2c(=O)[nH]c(=O)n3C)c1O	7.56%

SMILES	inhibition
COc1ccc(-c2noc(CCC(=O)NCc3ccc(OC)cc3OC)n2)cc1	9.69%
O=C(/C=C/c1ccccc1)NC1CC2CCCC(C1)N2Cc1ccccc1 (configuration not stated)	active: 87.5%
CCCN(CCC)CC(O)Cn1cc(/C=C/C(=O)c2ccc(OCC)cc2)c2ccccc21 (configuration not stated)	6.72%
CCn1cc(C(=O)N(C)Cc2ccccc2)c(=O)c2cc(S(=O)(=O)N3CCCCCC3)ccc21	9.43%
COc1ccc(OCC(=O)NCCS(=O)(=O)N2CCN(c3cccc(Cl)c3)CC2)cc1	-20.4%
CCc1ccc(NC(=O)C(=O)NCC(c2cccnc2)N2CCOCC2)cc1 (configuration not stated)	16.3%
CCc1ccc(NC(=O)c2cc3c(=O)n(Cc4cccnc4)ccc3nc2C)cc1	24.9%
Cc1cccc(C(=O)Nc2cccc(OCc3cc(=O)n4c(C)csc4n3)c2)c1	7.79%
CC(C)c1nn2c(=O)cc(COC(=O)CNC(=O)c3ccccc3)nc2s1	4.75%
COc1ccc(NC(=O)Cc2csc(COc3cccc(C)c3)n2)c(OC)c1	7.54%
Cc1cc(=O)[nH]c(SCC(=O)Nc2ccc3c(c2)CCC3)c1C#N	active: 35.7%
COc1ccc(Nc2nc(N)nc(CSc3nc4cc(OC)ccc4s3)n2)cc1	3.33%
Cc1ccc(CNC(=O)c2c(-c3cccc(Br)c3)noc2C)o1	-8.3%
COC(=O)c1ccc(OCC2c3cc(OC)c(OC)cc3CCN2C(=O)c2ccccc2F)cc1 (configuration not stated)	12.8%
Cc1ccc(C)c(Cn2nc(C)n3c(cc4cc(C)ccc43)c2=O)c1	0.437%
CC(Nc1ccc(-c2nc(-c3ccccn3)no2)cc1[N+](=O)[O-])c1ccccc1 (configuration not stated)	21.8%
CCCCCn1c(=N)n(CC(O)COc2cccc(C)c2)c2ccccc21 (configuration not stated)	5.44%
CCOc1ccc(N(CC(=O)NC(C)CC)S(C)(=O)=O)cc1 (configuration not stated)	active: 37.6%
O=C(CSCc1cnn(-c2ccccc2)c1-n1cccc1)Nc1ccc(F)cc1F	-5.76%
Cc1ccc2oc(=O)n(CCNC(=O)Nc3ccc(C)c(F)c3)c2c1	-4.3%
